Laboratory results from PubChem BioAssay AID504845 (National Center for Advancing Translational Sciences (NCATS), 2011).
About 150 (0.038%) of roughly 390,000 compounds were called active. This list was built around the results that the source calls inconclusive (neither active nor inactive); the mix of calls is not that of the screen. Calls come from the whole dose curve; as a rule, active = well fitted inhibition curve with a large enough effect; inconclusive = small, poorly fitted or top-dose-only effect; inactive = no such curve, though single readings can be large or run the other way. Where the call is inconclusive, the potency comes from a doubtful curve fit.

These compounds were tested against Regulator of G-protein signaling 4 (Homo sapiens) (UniProt P49798) (assay: Inhibitors of Regulator of G Protein Signaling (RGS) 4: qHTS). Conditions: Transcreener GDP fluorescence polarization, RGS4-accelerated GTP hydrolysis; series mostly up to 114 µM; activity change, negative = inhibition: at the top concentration.
Method in brief: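 MLSMR compounds (23 nl, pin-transferred) preincubated 10 min at room temperature with a 500nM (2x) first reagent, then RGS4 at 900nM (2x) plus Transcreener GDP mix added; fluorescence polarization (620/688 nm) read before and after 90 min at 30 °C.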
% is set by controls: 0 for no effect and ±100 for the full control effect; potency is the fitted concentration of half-maximal effect; tags give direction and shape of the fitted curve.
Note: nearly all actives have a fitted effect of over 75% in size.

Chain of UniProt P49798 (P49798 whole entry, looked up): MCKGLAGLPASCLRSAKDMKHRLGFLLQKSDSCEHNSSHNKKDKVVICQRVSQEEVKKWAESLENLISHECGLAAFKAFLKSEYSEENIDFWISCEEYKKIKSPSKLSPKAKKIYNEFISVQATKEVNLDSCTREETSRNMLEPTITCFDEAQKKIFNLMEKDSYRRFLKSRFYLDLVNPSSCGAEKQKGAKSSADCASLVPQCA

| SMILES | activity change, negative = inhibition | Potency |
| --- | --- | --- |
| COc1ccc(-n2ccnc(NCCc3ccccc3)c2=O)cc1OC | inactive: 12% | – |
| O=C1/C(=C/c2ccccn2)SC(=S)N1Nc1ncc(C(F)(F)F)cc1Cl | – | inconclusive: 50.1 µM [inhibitor, partial curve, poor fit] |
| O=C(Nc1nc2ccccc2s1)c1cc(-c2ccco2)nc2ccccc12 | – | inconclusive: 31.6 µM [inhibitor, full curve, poor fit] |
| Cc1cccc(C)c1NC(=O)CSc1nnc(-c2ccco2)c(-c2ccco2)n1 | – | inconclusive: 44.7 µM [inhibitor, partial curve, poor fit] |
| O[C@H]1[C@H]2c3cc4c(cc3CN3CCC(=C[C@@H]1O)[C@H]23)OCO4 | – | inconclusive: 4.74 µM [inhibitor, partial curve, poor fit] |
| CCOc1ccc(C=NNc2ccc(S(=O)(=O)Nc3ccccc3C(=O)O)cc2[N+](=O)[O-])cc1OC | – | inconclusive: 89.1 µM [inhibitor, single point] |
| CSc1nc2ccccc2n1CC(=O)Nc1cc(C(F)(F)F)ccc1N1CCOCC1 | inactive: 23.6% | – |
| Cc1c(C2=CCN(S(=O)(=O)c3ccc(CC(C)C)cc3)CC2)c2ccccc2n1CC(=O)N1CCCC1 | inactive: 1.91% | – |
| Cc1cc(/C=N/n2cnnc2)c(C)n1-c1ccc(OCc2ccc(Cl)cc2)cc1 | – | inconclusive: 79.4 µM [inhibitor, single point] |
| CC(C)c1ccc(S(=O)(=O)/N=C2/C=C(Sc3ncn[nH]3)C(=O)c3ccccc32)cc1 | – | inconclusive: 35.5 µM [inhibitor, partial curve, poor fit] |
| COc1cc(-c2n[nH]c(=S)n2/N=C/c2cccn2C)cc(OC)c1OC | – | inconclusive: 100 µM [inhibitor, partial curve, poor fit] |
| COCC1CCN(C(=O)c2cc(COc3ccc4ncccc4c3)on2)CC1 | – | inconclusive: 17.8 µM [inhibitor, full curve, poor fit] |
| COc1cccc(/C=N/Nc2ncnc3c2[nH]c2ccc(C)cc23)c1OC | – | inconclusive: 79.4 µM [inhibitor, partial curve, poor fit] |
| Cc1ccc(-n2c(N)c(C(=O)Nc3ccccc3F)sc2=S)cc1C | – | inconclusive: 100 µM [inhibitor, partial curve, poor fit] |
| CCN(CC)C(=O)CSc1nc(-c2cccs2)cc(-c2cccs2)c1C#N | – | inconclusive: 79.4 µM [inhibitor, partial curve, poor fit] |
| CCCCNC(C(=O)Nc1ccc([N+](=O)[O-])cc1Br)c1ccccc1 (configuration not stated) | inactive: 3.89% | – |
| CCCC(=O)OCCNc1cc(Sc2nccn2C)c2nonc2c1[N+](=O)[O-] | – | inconclusive: 79.4 µM [inhibitor, partial curve, poor fit] |
